Measurements as given in paper PMC4336329 (PLoS ONE, 2015).
Out of some 310,000 compounds screened, about 2,200 (0.71%) showed an effect of 50% or more. Effects have a minus sign here. The list shows a part of the results.

biological target: human ether-à-go-go-related gene (hERG) potassium channel (human, UniProt Q12809); experiment: primary screen, population patch clamp on CHO cells stably expressing hERG
Sequence (Q12809 whole entry, looked up): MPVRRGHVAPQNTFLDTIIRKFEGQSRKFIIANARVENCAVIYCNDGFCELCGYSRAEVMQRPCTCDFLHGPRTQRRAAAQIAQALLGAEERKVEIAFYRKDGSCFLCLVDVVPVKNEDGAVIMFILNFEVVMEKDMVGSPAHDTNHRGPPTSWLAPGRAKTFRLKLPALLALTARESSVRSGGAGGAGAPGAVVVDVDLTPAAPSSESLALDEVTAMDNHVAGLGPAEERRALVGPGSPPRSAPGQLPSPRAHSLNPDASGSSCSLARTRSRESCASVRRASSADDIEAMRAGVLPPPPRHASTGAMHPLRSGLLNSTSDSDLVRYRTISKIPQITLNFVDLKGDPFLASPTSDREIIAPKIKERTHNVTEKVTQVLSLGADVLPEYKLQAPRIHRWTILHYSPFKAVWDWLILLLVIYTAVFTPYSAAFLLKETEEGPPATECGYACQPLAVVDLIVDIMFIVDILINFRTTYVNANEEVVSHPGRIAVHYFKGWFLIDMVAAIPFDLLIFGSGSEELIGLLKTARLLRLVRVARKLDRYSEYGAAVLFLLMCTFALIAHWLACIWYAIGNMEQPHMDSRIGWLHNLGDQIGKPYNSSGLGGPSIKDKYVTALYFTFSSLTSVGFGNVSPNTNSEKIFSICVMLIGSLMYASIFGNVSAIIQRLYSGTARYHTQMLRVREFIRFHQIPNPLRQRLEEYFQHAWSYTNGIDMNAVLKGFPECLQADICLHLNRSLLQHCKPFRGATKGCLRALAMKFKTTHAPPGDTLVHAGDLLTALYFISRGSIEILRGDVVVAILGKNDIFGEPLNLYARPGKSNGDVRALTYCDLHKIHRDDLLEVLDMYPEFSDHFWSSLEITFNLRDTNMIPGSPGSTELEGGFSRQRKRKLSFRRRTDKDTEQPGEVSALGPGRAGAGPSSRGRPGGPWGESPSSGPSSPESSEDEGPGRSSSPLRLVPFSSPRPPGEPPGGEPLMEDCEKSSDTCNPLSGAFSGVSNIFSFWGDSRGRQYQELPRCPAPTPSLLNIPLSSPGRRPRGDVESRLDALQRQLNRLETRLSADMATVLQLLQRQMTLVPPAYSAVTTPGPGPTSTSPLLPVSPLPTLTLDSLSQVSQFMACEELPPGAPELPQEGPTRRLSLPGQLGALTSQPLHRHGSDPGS

| SMILES | hERG current change (%, negative = inhibition) at 1uM [%] |
| --- | --- |
| CC(=O)Nc1ccc(S(=O)(=O)Nc2cccc3[nH]ncc23)cc1 | 8.97 |
| CCOC(=O)c1ccc(NC(=O)CN2CCN(Cc3ccccc3)CC2)cc1 | -11.7 |
| COc1ccc(/C=C(\C#N)C(=O)OCC(=O)Nc2c(C)cccc2C(C)C)cc1 | 12.9 |
| COc1ccc(COc2cc(-c3cccc(OC)c3)nc3ccc(NC(=O)C(C)C)cc23)cc1 | 3.34 |
| COC(=O)c1c(NC(=O)CCl)sc(C(=O)N2CCOCC2)c1C | 8.51 |
| O=C1/C(=C/c2ccc(Br)cc2)Oc2cc(O)ccc21 | 15.3 |
| CCN(CC)c1ccc(C2CC(=O)NC3=C2C(=O)CC(C)(C)C3)cc1 (stereo not shown) | 8.94 |
| C=CCn1c(N)cc(=O)nc1SCC(=O)Nc1ccccc1 | 10.4 |
| Cc1c(Cl)cccc1NC(=O)C1C2C=CC(C2)C1C(=O)O (stereo not shown) | 11.4 |
| CSc1ccc(C(=O)C2CCCN(C(=O)c3cccnc3SC)C2)cc1 (stereo not shown) | 10.1 |
| CCN(CC)c1ccc(C=C2C(=O)OC3(CCCC3)OC2=O)cc1 | 3.3 |
| Cc1ccc(NC(=O)C2CCCN(c3ncnc4c3nc3n4CCCCC3)C2)cc1Cl (stereo not shown) | 3.48 |
| CC(C)CCNC(=O)NC(=O)CN1C(=O)NC2(CCCCC2)C1=O | -0.428 |
| CCNC(=O)c1c(N)sc2c1CCCCC2 | 9.61 |
| CCOC(=O)C1(C/C(C)=N/NC(N)=O)CC(C)(C)OC1=O (stereo not shown) | 25.1 |
| N/C(=N\OC(=O)c1ccco1)c1ccccn1 | 9.05 |
| COCCNC(=O)C(c1ccc(F)cc1)N(Cc1ccccc1)C(=O)CCC(=O)Nc1nccs1 (stereo not shown) | 13.9 |
| O=C(CSc1ccc(Cl)cc1)Nc1ncccn1 | 1.63 |
| COc1ccc(S(=O)(=O)N2CCCC2C(=O)Nc2ccc(C)cc2)cc1 (stereo not shown) | 9.13 |
| C/C(=N\NC(=O)CNc1cccc(C)c1)c1ccc(Br)s1 | 6.52 |
| O=C(c1ccc(CNS(=O)(=O)c2ccccc2)cc1)N1CCN(Cc2ccccc2)CC1 | -4.51 |
| O=S(=O)(c1ccc2ncn(O)c2c1)N1CCOCC1 | 13.4 |

| SMILES | hERG current change (%, negative = inhibition) at 1uM [%] |
| --- | --- |
| Cc1ccc(S(=O)(=O)C2(S(=O)(=O)c3ccc(C)cc3)CC2)cc1 | 5.31 |
| COc1ccc(C)cc1S(=O)(=O)N1CCN(C(=O)c2ncoc2-c2ccc(F)cc2)CC1 | 14.4 |
| CC(=O)N1c2ccc(S(=O)(=O)NCCC(=O)Nc3ccc(F)cc3C)cc2CC1C (stereo not shown) | -8.48 |
| COC(=O)C1=C(N)Oc2cc(C)n(CC3CCCO3)c(=O)c2C1c1ccccc1 (stereo not shown) | 16.9 |
| CCCOc1ccc(NC(=O)CC2C(=O)N(C)C(=S)N2Cc2ccc3c(c2)OCO3)cc1 (stereo not shown) | 11.1 |
| O=C(Nc1ccc(F)cc1)C1CCN(S(=O)(=O)c2cccc3nonc23)CC1 | 10.9 |
| Cc1cc(NCc2ccc3c(c2)OCO3)n2nc(C)nc2n1 | -3.44 |
| COc1ccc(OCC(O)CNC(=O)c2ccc(Br)cc2)cc1 (stereo not shown) | -10.7 |
| O=C(c1ccccc1)c1ccc(Oc2ncccn2)cc1 | 18.4 |
| N#Cc1cc2cc3c(cc2nc1NCCNC(=S)NCCCN1CCOCC1)OCO3 | 14 |
| Cc1cc(Nc2ccccc2)n(-c2ccc(Br)cc2)n1 | 3.39 |
| O=c1cc(N2CCCCC2)c(-c2ccccc2)nn1Cc1ccccc1 | 0.332 |
| CCCCC1(Cc2ccc(OC)c([N+](=O)[O-])c2)C(=O)N(c2ccccc2)N(c2ccccc2)C1=O | 6.34 |
| C[C@H](NC(=O)c1ccco1)C(=O)N1CCCC1 | 12.5 |
| CCOc1ccc(C(=O)Nc2nnc(C3=COCCO3)o2)cc1 | 15 |
| CC(=O)N1CCN(c2ccccc2NC(=O)c2ccc(-c3cccc([N+](=O)[O-])c3)o2)CC1 | -81.6 |
| Cc1cccc(CCN2C(N(C)C)=NC[C@@H]2C)c1 | 7.09 |
| Cn1cc(C(=O)c2cccc(Cl)c2)cc1C#N | 10.3 |
| CCOc1cc(/C=N/NC(=O)CSc2nncn2C)ccc1OCc1cccc(C)c1 | -4.63 |
| CC(C)NC(=O)C1(c2ccccc2)CC1(Cl)Cl (stereo not shown) | 11.3 |
| Cc1nn(C)c(Cl)c1CN1CCCC(C(=O)Nc2cccc(-n3cccn3)c2)C1 (stereo not shown) | -3.6 |
| O=S(=O)(c1ccccc1)N1CC1c1ccccc1 (stereo not shown) | 5.09 |

| SMILES | hERG current change (%, negative = inhibition) at 1uM [%] |
| --- | --- |
| CC1=C(C(=O)OCC2CCCO2)C(c2coc3ccccc3c2=O)C2=C(CCCC2=O)N1 (stereo not shown) | 0.381 |
| Cc1ccc(C(=O)Oc2ccccc2N2CCOCC2)cc1 | 11.1 |
| COc1cc(/C=N/NC(=O)c2ccncc2)ccc1OCCN1CCCCC1 | 5.52 |
| COC(=O)c1ccccc1NC(=O)c1ccc(COc2ccccc2)o1 | 12.3 |
| CN(Cc1ccccc1)C(=O)c1ccc(NC(=O)C2=CSCCO2)cc1 | 10.7 |
| CCN(CC)c1ccc(S(=O)(=O)N2CCOCC2)cc1NC(=O)CN1CCN(Cc2ccccc2)CC1.Cl | -17.5 |
| O=C(N/C(=C/c1cccnc1)C(=O)N1CCOCC1)c1ccccc1Br | 15.7 |
| COc1ccc(OC)c2[nH]c(=O)c(CCNC(=O)C(C)C)cc12 | 15.7 |
| CCC(OC(=O)c1nsc(Cl)c1Cl)C(=O)NCc1cccs1 (stereo not shown) | -3.5 |
| Cl.Nc1nc(Nc2ccc(Cl)cc2)nc2ccccc12 | 6.98 |
| COc1ccc(C(=O)NCCCN(C)CCCNC(=O)c2ccc(OC)cc2)cc1 | 9.44 |
| CC(=O)Nc1ccc(NC(=O)C/C(C)=N/NC(=O)COc2cc(C)c(Br)cc2Br)cc1 | 6.02 |
| COCCNC(=S)N/N=C1\CC(C)CC(C)(C)C1 (stereo not shown) | 8.67 |
| CC1CCN(S(=O)(=O)c2cn(CC(=O)N3CCN(c4cccc(C(F)(F)F)c4)CC3)cn2)CC1 | 5.78 |
| O=C(NN=c1c(=O)c2ccccc2c1=O)c1ccccc1 | -3.26 |
| Cl.NC1=NC2(CCCCC2)N(c2cccc(Cl)c2)C(N)=N1 | 17.5 |
| Cl.O=C1C2C3C=CC(C4CC34)C2C(=O)N1CCCCN1CCN(c2ccc(F)cc2)CC1 (stereo not shown) | -69.2 |
| Cc1ccc(C(O)(C(=O)NNC(=O)CN2CCN(C)CC2)c2ccc(C)cc2)cc1 | 10.1 |
| O=C(NCCN1CCOCC1)N1CCOCC1 | 1.21 |
| COc1cc2nc(N3CCN(C(=O)c4ccco4)CC3)nc(N)c2cc1OC.Cl.O | 2.99 |
| CCc1nnc(NC(=O)C(C)C)s1 | 9.95 |
| CC(C)[C@H](NC(=O)[C@@H]1CSC2c3ccccc3C(=O)N21)C(=O)NC1CCCC1 (stereo partly shown) | 19.5 |

| SMILES | hERG current change (%, negative = inhibition) at 1uM [%] |
| --- | --- |
| CCc1ccc2c(c1)C(O)(CC(=O)c1cccs1)C(=O)N2 (stereo not shown) | 6.15 |
| C[N+]1(C)C2CCC1CC(OC(=O)c1ccco1)C2.[Br-] (stereo not shown) | 8.57 |
| COc1c(/C=N/Nc2ccc([N+](=O)[O-])cc2[N+](=O)[O-])c(C)nn1-c1ccccc1 | 8.7 |
| O=C(COC(=O)C1(c2ccc(Cl)cc2)CCCC1)NC1CCS(=O)(=O)C1 (stereo not shown) | -7.34 |
| Cc1ccc(NC(=O)CCNC(=O)c2ccccc2Cl)cc1S(=O)(=O)N1CCCCCC1 | 7.67 |
| COC(=O)c1cc(OC)c(OC)cc1NCC(=O)Nc1ccc(C)cc1 | 2.14 |
| O=C(Cn1cnc2ccccc2c1=O)NCCCN1CCCC1=O | 6 |
| CC1CN=C(NC(=O)c2cccc([N+](=O)[O-])c2)S1.Cl (stereo not shown) | 7.67 |
| Cc1ccc(C)c(NC(=O)C2CCN(S(=O)(=O)c3ccc4c(c3)NC(=O)CO4)CC2)c1 | 0.661 |
| Cc1ccc(CC(=O)N2CCN(c3ccccn3)CC2)cc1 | 6.18 |
| Cc1cccc(NC(=S)NNC(=O)CCn2cc(C)cn2)c1 | -1.72 |
| CC1CCCN(Cc2c(O)ccc3c(=O)c(-c4nc5ccccc5s4)c(N)oc23)C1 (stereo not shown) | 8.6 |
| CC(=O)Nc1ccc(S(=O)(=O)N2CCCC2C(=O)Nc2ccc(F)cc2)cc1 (stereo not shown) | 14.3 |
| COc1ccccc1OCc1nc2ccccc2n1C | 7.93 |
| CCCn1c(SCC(=O)Nc2ccc(OCC)cc2)nnc1C(C)C | 7.36 |
| COc1ccc2cc(C(C)=O)c(=O)oc2c1 | 0.412 |
| CCN1CCN(c2cc3nc(C)n(Cc4ccccc4)c(=O)c3cc2NC(=O)c2ccccc2F)CC1 | 14.2 |
| COc1ccc(CNn2c(-c3cccs3)nc3ccccc3c2=O)cc1OC | -2.98 |
| O=[N+]([O-])c1cccc(-c2ccc(/C=N/NC(=S)Nc3cccc(F)c3)o2)c1 | 13.6 |
| CN1CCN(S(=O)(=O)c2cccc(C(=O)Nc3cccc([N+](=O)[O-])c3)c2)CC1 | 3.03 |
| COc1cc(/C=C/C(=O)OCC(=O)NCCC2=CCCCC2)ccc1O | 13.1 |
| Cc1ccccc1N(CC(=O)NCc1ccco1)C(=O)CNS(=O)(=O)c1ccc(F)cc1 | 10.2 |
